Measured values as given in ChEMBL document CHEMBL4888484, “Replenishing the malaria drug discovery pipeline: Screening and hit evaluation of the MMV Hit Generation Library 1 (HGL1) against asexual blood stage Plasmodium falciparum ,using a nano luciferase reporter read-out” (2022).
The whole screen tested about 150,000 compounds, of which about 540 (0.36%) showed an effect of 50% or more. The list shows a part of the results.

System: Plasmodium falciparum
Test: Primary screen in NF54 nanoGlo assay, in single point, at 2uM, 72h; a lower Z score goes with more inhibition
Assay type: functional, Erythrocyte
Conditions: timepoint 72 hour

| Compound | % Inhibition | Z score |
| --- | --- | --- |
| O=c1ccc(C(F)(F)F)cn1Cc1cc(Cl)cc2c1OCOC2 | -4% | 0.51 |
| Cc1nc([C@H]2CCN(Cc3ccc(Cl)s3)C2)n[nH]1 | -2% | 0.23 |
| Cc1c(C)c2c(c(C)c1NC(=O)N1CCOC[C@@H](O)C1)NC(=O)CO2 | -3% | 0.51 |
| CC[C@@H](CNc1cc(NC2CC2)ncn1)C(=O)O | -7% | 1.58 |
| Brc1cc(-c2nc(-c3cnccn3)no2)co1 | -5% | 0.57 |
| C=CCOc1ccccc1CN(CC)C(=O)[C@@H](C)N | 16% | -2.07 |
| COCCN1CCC(CN(Cc2nc3ccccc3n2C)C[C@H]2CCCO2)CC1 | 4% | -0.8 |
| CCN(Cc1ccccc1)C(=O)[C@@H]1CCCCC(=O)N1Cc1cccc(OC)c1 | 0% | 0.02 |
| COCc1cccc(CC(=O)Nc2cc(C)c(C)nn2)c1 | -8% | 1.6 |
| OCc1csc(N2CCC(c3nccn3Cc3ccccc3)CC2)n1 | -4% | 0.71 |
| CCCn1nnnc1CN1CCCC(C2(C)NC(=O)NC2=O)C1 (configuration not stated) | -1% | 0.12 |
| CCc1nc(-c2cc(NC(=O)COc3ccc(Cl)cc3C)c(C)s2)no1 | 4% | -0.48 |
| Cc1cnc(N)nc1N[C@H]1C[C@@H]1c1ccccc1 | -3% | 0.6 |
| CCN(CCC(=O)N1CCCCC1)C(=O)c1cnc(C)cn1 | -12% | 1.23 |
| CCc1ccccc1NC(=O)C(C)(C)CC | -19% | 2.49 |
| COC(=O)C1(NC(=O)C2CC23CCOC3)CCOC1 (configuration not stated) | -8% | 1.23 |
| CCOC(=O)N1CCc2c(nc(-c3ccc(C)cc3)n(CC(=O)NCc3ccc(Cl)cc3)c2=O)C1 | 27% | -3.09 |
| COc1ccc(C(=O)Nc2c(-c3cccc4ccccc34)c(=O)c3ccccc3n2C)cc1 | -5% | 0.63 |
| CCOc1ccccc1CN1CCC(=O)N(CC)C2(CCOCC2)C1 | -14% | 1.81 |
| COCCOC(=O)NC[C@@H]1C[C@H](F)CN1C(=O)c1scc2c1OCCO2 | 2% | -0.27 |
| O=C(CCc1nc2ccccc2s1)N1CCN(S(=O)(=O)c2ccc(Br)cc2)CC1 | -16% | 3.08 |
| CCNc1ncc(S(=O)(=O)NC[C@H]2CCOC2)cc1Cl | 12% | -1.38 |

| Compound | % Inhibition | Z score |
| --- | --- | --- |
| O=C(c1ccc(Cl)cc1Cl)N1C2CCC1COC2 | -12% | 1.4 |
| Cc1noc2ncnc(NC3CCCC3)c12 | -4% | 0.62 |
| O=C(Cc1ccc(Cl)cc1)N1CC2(C[C@H](N3CCCC3)CO2)C1 | -3% | 0.69 |
| CC(C)Oc1ccccc1CNC[C@H]1CCCN(C)C1 | 3% | -0.43 |
| CCCc1nc(NCCc2nnc(N)s2)c2cnn(C)c2n1 | -2% | 0.31 |
| COc1ccc(F)cc1-c1ncnc2[nH]cnc12 | 3% | -0.48 |
| CCN(Cc1ccccn1)Cc1nnc(C)n1C | -7% | 0.79 |
| CCOC(=O)c1c(C)n(CCc2c[nH]c3ccccc23)c(C)cc1=O | -11% | 1.43 |
| COc1cc(OC)c(C(=O)N2CC[C@H](CO)[C@@H](O)C2)cc1OC | -14% | 1.82 |
| CC(C)[C@H](CCC(=O)NC1CCCCC1)C(=O)O | -6% | 0.71 |
| Cc1ccc(S(=O)(=O)Nc2cccn3nc(C4CCC4)nc23)cc1C | -13% | 1.46 |
| Cc1noc(C)c1CC(=O)N1CCC[C@H]1c1ncc(C)n1Cc1ccncc1 | 7% | -0.97 |
| CCCN(Cc1nnc(-c2cccs2)o1)Cc1nc2cc(S(=O)(=O)N(C)C)ccc2n1CC | 1% | -0.2 |
| O=C(Cc1ccsc1)N[C@@H](CN1C(=O)COC1=O)c1ccccc1 | -10% | 1.52 |
| Cc1nc(N(C)Cc2ccncc2C)c2sccc2n1 | -3% | 0.56 |
| O=C(CN1C(c2ccc(Cl)cc2)=C[C@@H](c2ccccc2)n2nnnc21)NC1CCCCC1 | -21% | 2.12 |
| COc1ccc2cc1OCC(=O)N[C@@H](C)C(=O)N(C)CCCCN(C(=O)Cc1ccc(F)cc1Cl)CCCNC(=O)CC2 | 1% | -0.2 |
| COCCc1noc(-c2ccc(C)cc2C)n1 | -13% | 1.64 |
| Cc1nc(-c2ccc(-c3noc(C4CCC4)n3)cc2)cs1 | -18% | 1.78 |
| CCC1CN(C(C)c2nc(C)cc(O)n2)CCN1CC(F)F (configuration not stated) | -2% | 0.15 |
| COc1ccc(C(=O)N2CCN(c3ncnc4onc(C)c34)CC2)cc1 | -10% | 1.87 |
| c1ccc2nc(NCc3cn4ccsc4n3)cnc2c1 | -17% | 2.83 |

| Compound | % Inhibition | Z score |
| --- | --- | --- |
| Cc1ccc(C(CNC2CCCC2(C)C)N2CCCC2)o1 (configuration not stated) | 5% | -0.66 |
| O=C(c1cccc(NS(=O)(=O)c2c[nH]c(C(=O)N3CCCC3)c2)c1)N1CCC[C@H](O)C1 | 7% | -1.08 |
| Cc1cc(NC(=O)Cc2ccsc2)no1 | -3% | 0.51 |
| CCC[C@]1(CO)CCCN(C(=O)c2n[nH]c3c2CCCC3)C1 | 10% | -1.3 |
| Cc1c(NC(=O)N[C@@H](Cc2ccccc2)c2ncco2)nnn1C | -4% | 0.44 |
| Clc1cccc(C2(c3nc(C4CCCC4)no3)CCOCC2)c1 | -17% | 2.13 |
| COc1cc(C(=O)NCc2c(C)cc(C)[nH]c2=O)ccn1 | -10% | 1.34 |
| COc1ccccc1/C=C/CN1CCC[C@H](CCC(=O)N2CCN(c3ccccn3)CC2)C1 | 1% | -0.13 |
| Cc1noc(C)c1CCC(=O)Nc1cc(S(=O)(=O)N2CCOCC2)ccc1N1CCOCC1 | -17% | 1.75 |
| COc1ncccc1C(=O)NC[C@H](C)N1CCCC1 | 3% | -0.42 |
| N#Cc1cccc(NC(=O)COc2ccc(C(=O)c3ccc(Cl)cc3)cc2)c1 | -23% | 3.1 |
| C[C@H]1COCCN1C(=O)c1cc2ccccc2n1C | -12% | 1.21 |
| O=C([C@@H]1CCCN1C(=O)Nc1ccccc1)N1CCc2ccccc2C1 | -5% | 0.41 |
| CN1CCN(CCN2C(=O)c3ccc(-c4ccco4)n3C[C@@]2(C)C(=O)NC2CCCCCC2)CC1 | -17% | 1.69 |
| Cc1cc(NC(=O)c2ccc(C(=O)N3CCOCC3)cc2)nc(C)n1 | 9% | -1.69 |
| CCC(NC(=O)C1CCCN1C(=O)c1ccco1)c1cnn(CC)c1 (configuration not stated) | -6% | 0.9 |
| CCCN(CC(=O)NC)C(=O)c1ccc(C)c(Br)c1 | 1% | -0.13 |
| Cc1cc(O)cc(NS(=O)(=O)c2cnn3c2OCC(C)(C)C3)c1 | -10% | 0.98 |
| COc1ccc2c(c1)N1CCN(c3ccccc3Cl)CC1C(C(=O)N1CCN(C(C)=O)CC1)C2 (configuration not stated) | -5% | 0.56 |
| Cc1c(C(=O)N2CCNCC2)cccc1N1CCNC1=O | 10% | -1.23 |
| O=C(C[C@H]1C(=O)NCCN1CC1CCCCC1)NCc1ncc[nH]1 | -2% | 0.21 |
| CCN(CC)C(=O)CCNC(=O)c1snnc1C | -7% | 0.79 |

| Compound | % Inhibition | Z score |
| --- | --- | --- |
| O=C(c1nnc(Cc2c(F)cccc2Cl)o1)N1CCCC1 | -6% | 1 |
| Cc1nc(-c2ccco2)ccc1C(=O)N[C@@H](C)C(=O)N1CCOCC1 | 5% | -0.78 |
| CN1CCc2nc(-c3ccco3)nc(NCc3ccco3)c2CC1 | -16% | 1.48 |
| CCN1c2cc(C(=O)Nc3cccc(OC)c3)ccc2C(=O)N2CCC[C@@H]21 | -2% | 0.26 |
| Cc1nnc(CN(Cc2nccs2)C2CC2)s1 | -15% | 2.01 |
| Cc1nc(C)c(CCN[C@@H](C)c2cn3ccccc3n2)s1 | -5% | 0.56 |
| Cc1cc(-n2ccnc2)ccc1CN(C)CCn1cccn1 | 0% | -0.03 |
| COc1cccc(CNS(=O)(=O)c2cc(-c3cc(C)no3)ccc2C)c1 | -4% | 0.48 |
| O=C(c1cncc(Br)c1)N1CC[C@H](c2nc(C3CCOCC3)no2)C1 | 35% | -0.93 |
| Cc1ccc(C2CC(C)CCN2C(=O)NC2CCC(=O)N(C)C2)o1 (configuration not stated) | -5% | 0.44 |
| CCc1n[nH]c(NC(=O)CCc2ccccn2)c1Br | -6% | 1.1 |
| O=C(NCCCc1ccccc1)c1n[nH]c2c1CN(C(=O)c1ccccc1F)CC2 | 4% | -0.69 |
| O=C1CNC2(CCN(S(=O)(=O)c3ccc(Cl)cc3)CC2)N1Cc1ccc(F)cc1 | 6% | -0.81 |
| CC1CC(C(=O)NCc2cocn2)(c2cccc(Cl)c2)C1 (configuration not stated) | -3% | 0.36 |
| Cc1nc2cc(C(=O)OCC(=O)N(C)CC(=O)Nc3ccc(F)cc3)ccc2n1-c1ccccc1 | -38% | 4.45 |
| C[C@@H](CC(=O)Nc1c[nH]c(=O)[nH]c1=O)c1ccccc1 | -9% | 0.99 |
| O=C(Nc1ccc2ccccc2c1)N1CCCCCC1 | 1% | -0.23 |
| COc1ccc(CC(=O)NO)cc1OC | -14% | 1.15 |
| Cc1cc(C)c(CN2CC[C@H](CNC(=O)c3cncnc3)C2)cc1C | -4% | 0.57 |
| CCn1nc(C)c(CC(=O)N2Cc3ccccc3N(C)C[C@@H]2C)c1C | -6% | 0.92 |
